# Laboratory results: PMC9911399, “Two distinct binding modes provide the RNA-binding protein RbFox with extraordinary sequence specificity”
# Where a chain is given by its changes, count along the chain named. The list shows a part of the results.
# B1: GUCCAGC (DNA:RNA)
# RNA: GGGAGACCGGAAUUCAGAUUGUCCGUCCAGCUUAAAUCCCGUCGUAGCCACCA
# DNA 1: CAATCTGAATTCCGGTCTCCC
# DNA 2: TGGTGGCTACGACGGGATT
# B2: GGUAUUA (DNA:RNA)
# RNA: B1 RNA with U26G, C27U, C28A, A29U, G30U, C31A
# DNA 1: CAATCTGAATTCCGGTCTCCC
# DNA 2: TGGTGGCTACGACGGGATT
# B3: UCAGCUG (DNA:RNA)
# RNA: GGGAGACCGGAAUUCAGAUUGUCCUCAGCUGUUAAAUCCCGUCGUAGCCACCA
# DNA 1: CAATCTGAATTCCGGTCTCCC
# DNA 2: TGGTGGCTACGACGGGATT
# B4: GAACUGU (DNA:RNA)
# RNA: B1 RNA with U26A, C27A, A29U, C31U
# DNA 1: CAATCTGAATTCCGGTCTCCC
# DNA 2: TGGTGGCTACGACGGGATT
# B5: CGGACAU (DNA:RNA)
# RNA: B3 RNA with U25C, C26G, A27G, G28A, U30A, G31U
# DNA 1: CAATCTGAATTCCGGTCTCCC
# DNA 2: TGGTGGCTACGACGGGATT
# B6: UAUGGGA (DNA:RNA)
# RNA: B3 RNA with C26A, A27U, C29G, U30G, G31A
# DNA 1: CAATCTGAATTCCGGTCTCCC
# DNA 2: TGGTGGCTACGACGGGATT
# B7: GGUGGCG (DNA:RNA)
# RNA: B3 RNA with U25G, C26G, A27U, C29G, U30C
# DNA 1: CAATCTGAATTCCGGTCTCCC
# DNA 2: TGGTGGCTACGACGGGATT
# B8: UUCCAUU (DNA:RNA)
# RNA: B1 RNA with G25U, G30U, C31U
# DNA 1: CAATCTGAATTCCGGTCTCCC
# DNA 2: TGGTGGCTACGACGGGATT
# B9: UGCCCGC (DNA:RNA)
# RNA: B1 RNA with G25U, U26G, A29C
# DNA 1: CAATCTGAATTCCGGTCTCCC
# DNA 2: TGGTGGCTACGACGGGATT
# B10: AAUCCGU (DNA:RNA)
# RNA: B1 RNA with G25A, U26A, C27U, A29C, C31U
# DNA 1: CAATCTGAATTCCGGTCTCCC
# DNA 2: TGGTGGCTACGACGGGATT
# B11: UUUCCGU (DNA:RNA)
# RNA: B1 RNA with G25U, C27U, A29C, C31U
# DNA 1: CAATCTGAATTCCGGTCTCCC
# DNA 2: TGGTGGCTACGACGGGATT
# B12: CCCAACG (DNA:RNA)
# RNA: B1 RNA with G25C, U26C, C28A, G30C, C31G
# DNA 1: CAATCTGAATTCCGGTCTCCC
# DNA 2: TGGTGGCTACGACGGGATT
# B13: GUGGGGC (DNA:RNA)
# RNA: B1 RNA with C27G, C28G, A29G
# DNA 1: CAATCTGAATTCCGGTCTCCC
# DNA 2: TGGTGGCTACGACGGGATT
# B14: UACUUGC (DNA:RNA)
# RNA: B1 RNA with G25U, U26A, C28U, A29U
# DNA 1: CAATCTGAATTCCGGTCTCCC
# DNA 2: TGGTGGCTACGACGGGATT
# B15: UAUCCUC (DNA:RNA)
# RNA: B3 RNA with C26A, A27U, G28C, G31C
# DNA 1: CAATCTGAATTCCGGTCTCCC
# DNA 2: TGGTGGCTACGACGGGATT
# B16: CCUUCGG (DNA:RNA)
# RNA: B3 RNA with U25C, A27U, G28U, U30G
# DNA 1: CAATCTGAATTCCGGTCTCCC
# DNA 2: TGGTGGCTACGACGGGATT
# B17: CGAAGCC (DNA:RNA)
# RNA: B1 RNA with G25C, U26G, C27A, C28A, A29G, G30C
# DNA 1: CAATCTGAATTCCGGTCTCCC
# DNA 2: TGGTGGCTACGACGGGATT
# B18: CAUUUGC (DNA:RNA)
# RNA: B1 RNA with G25C, U26A, C27U, C28U, A29U
# DNA 1: CAATCTGAATTCCGGTCTCCC
# DNA 2: TGGTGGCTACGACGGGATT
# B19: CUGUCCA (DNA:RNA)
# RNA: B1 RNA with G25C, C27G, C28U, A29C, G30C, C31A
# DNA 1: CAATCTGAATTCCGGTCTCCC
# DNA 2: TGGTGGCTACGACGGGATT
# B20: UGCAGUA (DNA:RNA)
# RNA: B3 RNA with C26G, A27C, G28A, C29G, G31A
# DNA 1: CAATCTGAATTCCGGTCTCCC
# DNA 2: TGGTGGCTACGACGGGATT
# B21: GUGGGAA (DNA:RNA)
# RNA: B1 RNA with C27G, C28G, A29G, G30A, C31A
# DNA 1: CAATCTGAATTCCGGTCTCCC
# DNA 2: TGGTGGCTACGACGGGATT
# B22: CCAUGUC (DNA:RNA)
# RNA: B3 RNA with U25C, G28U, C29G, G31C
# DNA 1: CAATCTGAATTCCGGTCTCCC
# DNA 2: TGGTGGCTACGACGGGATT
# B23: GGACCCU (DNA:RNA)
# RNA: B1 RNA with U26G, C27A, A29C, G30C, C31U
# DNA 1: CAATCTGAATTCCGGTCTCCC
# DNA 2: TGGTGGCTACGACGGGATT
# B24: AUGCAUU (DNA:RNA)
# RNA: B1 RNA with G25A, C27G, G30U, C31U
# DNA 1: CAATCTGAATTCCGGTCTCCC
# DNA 2: TGGTGGCTACGACGGGATT
# B25: UUACGGG (DNA:RNA)
# RNA: B1 RNA with G25U, C27A, A29G, C31G
# DNA 1: CAATCTGAATTCCGGTCTCCC
# DNA 2: TGGTGGCTACGACGGGATT
# B26: AUCUCCU (DNA:RNA)
# RNA: B1 RNA with G25A, C28U, A29C, G30C, C31U
# DNA 1: CAATCTGAATTCCGGTCTCCC
# DNA 2: TGGTGGCTACGACGGGATT
# B27: AGGCUAA (DNA:RNA)
# RNA: B1 RNA with G25A, U26G, C27G, A29U, G30A, C31A
# DNA 1: CAATCTGAATTCCGGTCTCCC
# DNA 2: TGGTGGCTACGACGGGATT
# B28: GAGUUUU (DNA:RNA)
# RNA: B1 RNA with U26A, C27G, C28U, A29U, G30U, C31U
# DNA 1: CAATCTGAATTCCGGTCTCCC
# DNA 2: TGGTGGCTACGACGGGATT
# B29: AUCGAAG (DNA:RNA)
# RNA: B1 RNA with G25A, C28G, G30A, C31G
# DNA 1: CAATCTGAATTCCGGTCTCCC
# DNA 2: TGGTGGCTACGACGGGATT
# B30: UAGCUGA (DNA:RNA)
# RNA: B1 RNA with G25U, U26A, C27G, A29U, C31A
# DNA 1: CAATCTGAATTCCGGTCTCCC
# DNA 2: TGGTGGCTACGACGGGATT
# B31: GGAGACU (DNA:RNA)
# RNA: B1 RNA with U26G, C27A, C28G, G30C, C31U
# DNA 1: CAATCTGAATTCCGGTCTCCC
# DNA 2: TGGTGGCTACGACGGGATT
# Target: T1, RBFOX1 RRM RbFoxmut (Fox-RRM*) (Homo sapiens, UniProt Q9NWB1 109-208, R118D;E147R;N151S;E152T)
# T1 sequence: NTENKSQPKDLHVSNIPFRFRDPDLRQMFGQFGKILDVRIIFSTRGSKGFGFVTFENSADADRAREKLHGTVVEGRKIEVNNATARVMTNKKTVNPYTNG
# Assay: EMSA; HiTS-Eq, 1 nM pool, 10 min; buffer printed only for the single-RNA assays: 10 mM Tris pH 7.5, 150 mM NaCl, 3.4 mM EDTA, 0.001% NP-40, 30 C
# Conditions: tags: His6 N-terminal (pET28a); label: 5' 32P
# Procedure, shortened: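 Relative association constants, normalised to the cognate motif, were derived by comparing read counts of each RNA species with those of the control reaction. The RNA sequenced was the free fraction, separated by 8% native PAGE after a 10 min equilibration in 50 µL of 1 nM 5′-radiolabelled RNA (7 randomized nucleotides) with increasing concentrations of purified wild-type or mutant RbFox RRM.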
row,Binder,binding signal
1,B1,0.114 KA relative to UGCAUGU
2,B2,0.107 KA relative to UGCAUGU
3,B3,0.102 KA relative to UGCAUGU
4,B4,0.0987 KA relative to UGCAUGU
5,B5,0.0704 KA relative to UGCAUGU
6,B6,0.0705 KA relative to UGCAUGU
7,B7,0.145 KA relative to UGCAUGU
8,B8,0.0945 KA relative to UGCAUGU
9,B9,0.107 KA relative to UGCAUGU
10,B10,0.0653 KA relative to UGCAUGU
11,B11,0.0848 KA relative to UGCAUGU
12,B12,0.0833 KA relative to UGCAUGU
13,B13,0.092 KA relative to UGCAUGU
14,B14,0.131 KA relative to UGCAUGU
15,B15,0.0711 KA relative to UGCAUGU
16,B16,0.0583 KA relative to UGCAUGU

row,Binder,binding signal
1,B17,0.125 KA relative to UGCAUGU
2,B18,0.133 KA relative to UGCAUGU
3,B19,0.128 KA relative to UGCAUGU
4,B20,0.152 KA relative to UGCAUGU
5,B21,0.151 KA relative to UGCAUGU
6,B22,0.17 KA relative to UGCAUGU
7,B23,0.0554 KA relative to UGCAUGU
8,B24,0.124 KA relative to UGCAUGU
9,B25,0.0998 KA relative to UGCAUGU
10,B26,0.0809 KA relative to UGCAUGU
11,B27,0.0915 KA relative to UGCAUGU
12,B28,0.0926 KA relative to UGCAUGU
13,B29,0.137 KA relative to UGCAUGU
14,B30,0.0895 KA relative to UGCAUGU
15,B31,0.0746 KA relative to UGCAUGU
